Measured values as given in article PMC4336329 (PLoS ONE, 2015).
Among all 310,000 compounds or so, about 2,200 (0.71%) showed an effect of 50% or more. Effects have a minus sign here. Some of the results follow.

These compounds were tested against human ether-à-go-go-related gene (hERG) potassium channel (human, UniProt Q12809) (assay: primary screen, population patch clamp on CHO cells stably expressing hERG).
Chain of human ether-à-go-go-related gene (hERG) potassium channel (Q12809 whole entry, looked up): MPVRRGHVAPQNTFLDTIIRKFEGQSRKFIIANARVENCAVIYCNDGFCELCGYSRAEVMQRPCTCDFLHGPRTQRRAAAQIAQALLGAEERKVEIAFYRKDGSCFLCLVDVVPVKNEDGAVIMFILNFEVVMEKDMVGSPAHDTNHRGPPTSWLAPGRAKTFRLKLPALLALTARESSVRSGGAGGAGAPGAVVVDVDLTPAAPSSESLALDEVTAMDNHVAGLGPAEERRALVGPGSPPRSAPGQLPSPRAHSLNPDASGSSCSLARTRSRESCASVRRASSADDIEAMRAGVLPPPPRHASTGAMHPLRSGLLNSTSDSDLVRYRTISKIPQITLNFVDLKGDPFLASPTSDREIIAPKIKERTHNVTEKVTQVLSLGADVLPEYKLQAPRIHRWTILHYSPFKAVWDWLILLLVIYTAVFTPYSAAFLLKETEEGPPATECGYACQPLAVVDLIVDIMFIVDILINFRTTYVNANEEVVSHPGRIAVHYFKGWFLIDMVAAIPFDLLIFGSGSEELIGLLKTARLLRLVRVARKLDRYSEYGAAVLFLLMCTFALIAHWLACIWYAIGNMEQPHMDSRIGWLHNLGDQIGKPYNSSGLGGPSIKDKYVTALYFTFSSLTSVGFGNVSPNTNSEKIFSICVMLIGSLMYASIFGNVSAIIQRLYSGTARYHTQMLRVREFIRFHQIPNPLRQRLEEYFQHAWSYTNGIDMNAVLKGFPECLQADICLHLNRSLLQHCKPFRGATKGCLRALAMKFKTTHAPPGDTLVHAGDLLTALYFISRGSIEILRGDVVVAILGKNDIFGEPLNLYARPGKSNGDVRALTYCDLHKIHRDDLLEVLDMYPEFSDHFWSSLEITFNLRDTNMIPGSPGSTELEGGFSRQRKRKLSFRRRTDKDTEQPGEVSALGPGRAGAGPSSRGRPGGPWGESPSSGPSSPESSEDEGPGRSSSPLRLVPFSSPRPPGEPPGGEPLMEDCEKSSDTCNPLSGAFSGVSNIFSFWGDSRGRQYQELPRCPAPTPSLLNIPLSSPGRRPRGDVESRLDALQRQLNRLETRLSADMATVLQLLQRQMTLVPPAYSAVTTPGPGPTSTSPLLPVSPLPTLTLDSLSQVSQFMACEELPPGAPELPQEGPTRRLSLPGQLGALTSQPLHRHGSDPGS

Structure (SMILES)	hERG current change (%, negative = inhibition) at 1uM [%]
COc1ccccc1CNC(=O)COC(=O)c1n[nH]c2ccccc12	-2.71
COc1ccc(NC(=O)c2ccc(S(=O)(=O)C(F)F)cc2)c(OC)c1	0.227
Cc1ccc(C2=CC(c3ccccc3)n3ncnc3N2)cc1 (stereo not shown)	9.05
CC(C)CCN1C(=O)c2ccc(C(=O)NCC3CCCO3)cc2C1=O (stereo not shown)	-1.67
CCCc1nc2c(nnn2Cc2ccccc2)c(=O)[nH]1	7.23
CC(C)c1ccc(-n2nnnc2SCC(=O)NC2CC2)cc1	14.9
Cc1ccc(C(=O)N/C(=C\c2ccccc2)C(=O)NCC2CCCO2)cc1 (stereo not shown)	9.57
Cc1cc(C)c(C(=O)C2OC(=O)C(C)(C)C(=O)C2(C)C)c(C)c1 (stereo not shown)	9.56
Cc1ccc(-c2csc3ncnc(SCC(=O)Nc4nnc(C)s4)c23)cc1	-0.987
CCC(C)NC(=O)CCS(=O)(=O)c1ccc(Br)s1 (stereo not shown)	6.64
Cc1ccc(C(=O)N(c2ccccc2)C2CC(C)N(C(=O)c3ccco3)c3ccccc32)cc1 (stereo not shown)	1.93
CC(=O)c1cccc(NC(=O)CSCc2ccccc2)c1	11
O=S(=O)(Cc1nc2ccccc2s1)c1ccccc1	4.95
CC(C)CCNC(=O)COc1ccc(C(=O)c2ccccc2)cc1	1.68
COS(=O)(=O)[O-].Cn1c(Cc2ccccc2)[n+](C)c2ccccc21	9.2
O=C(CC1C(=O)NC2CCCCC2N1C(=O)c1ccc([N+](=O)[O-])cc1)Nc1ccccc1 (stereo not shown)	-0.203
CC(C)NC(=O)c1cc2cc([N+](=O)[O-])ccc2s1	14.1
O=C(Nc1c2c(nn1-c1ccccc1)CS(=O)(=O)C2)c1cccs1	12
O=S(=O)(NCc1cccs1)c1ccc(Br)cc1	17.4
Cc1cc(S(=O)(=O)N(Cc2ccccc2F)C2CC2)ccc1-n1cnnn1	-7.13
COc1ccc(OC)c2sc(NC(=O)c3cccc(N4C(=O)CCC4=O)c3)nc12	2.94
COc1ccc(N(CC(=O)NC2CCCCC2)C(=O)CCCC(=O)Nc2ccccn2)cc1	-17.3

Structure (SMILES)	hERG current change (%, negative = inhibition) at 1uM [%]
Cc1ccc(-c2cc(Cc3cccs3)c(=O)[nH]n2)cc1	10.1
Cc1cccc(NC(=S)NCc2ccc(F)cc2)c1	5.98
O=C(CSc1ccc(-c2ccc(F)cc2)nn1)N1CCCCC1	-8.39
O=C1N=C2SCCN2/C1=C\c1ccc(Cl)cc1	-5.66
COc1cccc(C2(c3cccc(OC)c3)CC2C(=O)Nc2ccc(F)cc2)c1 (stereo not shown)	1.06
COc1cc2c(cc1OC)CN(C(=O)COc1ccccc1C#N)CC2	15.1
C1CCCN(CCCCN2CCCCCC2)CC1.Cl	-1.27
CCC1CSC(Nc2ccc(C(=O)/C=C/c3cccc(C)c3)cc2)=N1 (stereo not shown)	14
O=C(c1cccs1)N1CCN(c2nc3ccc([N+](=O)[O-])cc3s2)CC1	15.6
COc1ccc(C(=O)CSc2nnc3ccccn23)cc1OC	14.3
CCCCCCCCOc1ccc(C(=O)O)cc1	17.2
CC1(C)OC(=O)C2(Cc3ccccc3N3CCCCC32)C(=O)O1 (stereo not shown)	0.285
O=C1C(O)=C(O)C(=O)c2ccccc21	2.37
CCOC(=O)C1C(=O)N(C)C2(C)CC1c1ccccc1O2 (stereo not shown)	14.6
CCOc1ccccc1N1CC(C(=O)N2CCc3ccccc32)CC1=O (stereo not shown)	5.44
CCOC(=O)c1c(NC(=O)C2CC=CCC2C(=O)O)sc(C)c1CC (stereo not shown)	6.24
Nc1c(C(=O)c2ccccc2)oc2ccc([N+](=O)[O-])cc12	5.62
CCN(CC)Cc1cc(C(C)=O)ccc1OCC(C)C	-1.39
Cc1ccc(NC(=O)c2cc(CC(C)C)nc3ccccc23)cc1	13.6
O=C(NCCC1CCCCN1S(=O)(=O)c1ccc(F)cc1)C(=O)NCc1ccccn1 (stereo not shown)	3.48
CC(C)NC(=O)c1ccccc1NC(=O)CN(c1ccc2c(c1)OCO2)S(C)(=O)=O	15.4
CN(C)C=O.O=C1CN(C(=O)CN2C(=O)NC3(CCCCC3)C2=O)c2ccccc2N1	30.2

Structure (SMILES)	hERG current change (%, negative = inhibition) at 1uM [%]
Cc1ccccc1NC(=O)N1CCC(C(=O)c2ccc(F)cc2)CC1	17.6
O=C(Cn1ncc2c3ccccc3n(Cc3ccccc3F)c2c1=O)NC1CC1	12.4
Cc1noc(C)c1COc1ccc(C(=O)OCC(=O)N2CC(=O)Nc3ccccc32)cc1	9.32
CC(Sc1ncnc2sc(-c3ccccc3)cc12)C(=O)NCC1CCCO1 (stereo not shown)	-4.48
COc1ccc(N2CCN(C(=O)COC(=O)c3c(-c4ccccc4)noc3C)CC2)cc1	7.6
COC(=O)c1sc2nc(CN3CCN(c4cccc(C(F)(F)F)c4)CC3)[nH]c(=O)c2c1C	9.95
CCOc1ccc(OCCn2c(S(=O)(=O)O)nc3c(N)ncnc32)cc1	11.5
COc1ccc(NC(=O)c2ccc(N3CCOCC3)nc2)cc1	9.13
O=C(CN1C(=O)S/C(=C\C=C\c2ccccc2)C1=O)NC1CCS(=O)(=O)C1 (stereo not shown)	17.8
Cc1c(C(=O)NCC2CCCO2)oc2ccc(S(=O)(=O)N3CCCCC3)cc12 (stereo not shown)	1.11
CCOC(=O)c1c(/N=C/C2=C(O)CCCC2=O)sc2c1CCCC2	12.5
CCc1nc(C)cn1S(=O)(=O)c1cc([N+](=O)[O-])ccc1Cl	15.8
CC1CCN(C(=S)c2ccc([N+](=O)[O-])cc2)CC1	1.08
CN(CC(=O)Nc1ccc(N2CCOCC2)cc1)C(=O)CCc1cc(C(C)(C)C)c(O)c(C(C)(C)C)c1	-2.49
Cc1cc(C)cc(C(=O)O/N=C(\N)c2ccc(Br)cc2)c1	4.51
O=C(NC(=S)N1CCN(c2ccccc2)CC1)c1c(F)cccc1F	21.9
O=C1CN(CC(=O)Nc2ccc(Cl)cc2)CCN1	5.39
O=C(C1CCCO1)N1CCN(C(=S)Nc2ccccc2C(F)(F)F)CC1 (stereo not shown)	4.24
CC(C)OCCCNc1ncnc2c1[nH]c1ccccc12	8.11
COc1ccc(CNC(=O)c2cccc(C)c2[N+](=O)[O-])cc1	14.6
O=C(CSc1nnc(-c2ccc(S(=O)(=O)N3CCCC3)cc2)o1)NCc1ccccc1	15.2
CS(=O)(=O)c1ccc(C(=O)Nc2ccc(N3CCOCC3)cc2)c(Cl)c1	9.5

Structure (SMILES)	hERG current change (%, negative = inhibition) at 1uM [%]
COc1ccc(S(=O)(=O)N2CCC(C(=O)Nc3cccc(Cl)c3)CC2)cc1OC	5.95
Cn1cnc2c1c(=O)n(Cc1cccc(Cl)c1)c(=O)n2C	11
O=[N+]([O-])c1cccc(-c2cc3cccc[n+]3cc2-c2cccc([N+](=O)[O-])c2)c1.[Cl-]	-3.23
COc1ccc(Cl)cc1C(=O)Nc1ccccc1N1CCN(C(=O)C(C)C)CC1	-19.6
Cn1ccnc1Sc1ccc(/C=N/NC(=O)c2ccccc2[N+](=O)[O-])cc1[N+](=O)[O-]	-6.08
CSCCC(NC(=O)c1ccccc1Cl)C(=O)N1CCN(C(c2ccccc2)c2ccccc2)CC1 (stereo not shown)	8.16
COc1ccc(CCNC(=O)CSc2ccc3nnc(CCNC(=O)c4ccccc4)n3n2)cc1OC	10.7
CCOc1ccc(CN2CCN(Cc3cnc(N4CCOCC4)s3)CC2CCO)cc1 (stereo not shown)	-19.2
COc1cccc(-c2nc(N3CCCCC3C)c3ccccc3n2)c1O (stereo not shown)	16.7
COc1ccccc1OCCCCCNCCO	6.02
COc1ccccc1NS(=O)(=O)c1ccc(C(N)=O)cc1	14.9
C=C(C)c1cccc(C(C)(C)NC(=O)N2CCN(C/C=C/c3ccccc3)CC2)c1	-4.33
Cc1cc(Nc2ccc(F)cc2Cl)n2ncnc2n1	5.93
CCC1CCCCN1C(=O)CSc1nc2c(cnn2-c2ccc(C)cc2)c(=O)[nH]1 (stereo not shown)	19.8
CCCOP(=O)(OCCC)C1(Nc2ccc(C)cc2)CCCCC1	7.69
COc1ccc(S(=O)(=O)N(CC(=O)NN=C2CCN(C)CC2)c2ccc(C)cc2)cc1OC	12.5
Cc1ccc(OCC(O)Cn2c(=N)n(CCN3CCCCC3)c3ccccc32)cc1.Cl (stereo not shown)	-30.1
COc1ccc(N2CC(C(=O)Nc3nnc(SCC(=O)N4CCOCC4)s3)CC2=O)cc1 (stereo not shown)	9.08
O=C1CC(NNc2ccccc2)C(=O)N1c1cccc(Cl)c1 (stereo not shown)	24.5
O=C(COc1ccc(S(=O)(=O)N2CCCC2)cc1)NCC1CCCO1 (stereo not shown)	17.9
COn1c(SC(C)C)nc2ccccc2c1=O	-2.81
O=C(NC1CC(=O)N(c2cccc(F)c2)C1)N1CCN(C(=O)c2ccco2)CC1 (stereo not shown)	2.41
